# Measured values from PubChem BioAssay (Tox21).
# Values joined by “and” are separate entries in the source; they are usually repeats but may differ in a detail not shown here. Identical values can stand only once. Inconclusive results, whose numbers are uncertain, are shown with a selection of clear calls. For some of these results: A potency beside an inconclusive call is a rough fit, not a confirmed value. Active and inactive are the calls of the source. Unless noted, calls come from the whole dose curve; as a rule, active = well fitted curve in the direction sought with a large enough effect in the repeat runs; inconclusive = weak or mixed curves; inactive = no such curve, though single readings can be large; an effect the other way counts as inactive or inconclusive.
# Columns and labels:
# [1] = qHTS assay for small molecule agonists of the antioxidant response element (ARE) signaling pathway - cell viability counter screen (AID 743203; calls by dose curve; note: nearly all actives have a fitted effect of over 55% in size; note: potency is the fitted concentration of half-maximal effect); settings: ARE-bla HepG2 viability, CellTiter-Glo luminescence, 16 h; viability change, negative = cytotoxic: at 73.3 µM (top of the series)
# How it was run: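 Measured in the same wells as the beta-lactamase ARE reporter, this read-out is CellTiter-Glo luminescence from HepG2 ARE-bla cells given compounds for 16 hrs.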
# [2] = qHTS assay to identify small molecule antagonists of the peroxisome proliferator-activated receptor delta (PPARd) signaling pathway - cell viability counter screen (AID 743213); settings: PPARd-bla HEK293H viability, CellTiter-Glo luminescence, 17 h; viability change, negative = cytotoxic: at 62 µM (top of the series) unless noted; note: potency is the fitted concentration of half-maximal effect; nearly all actives have a fitted effect of over 50% in size
# How it was run: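 Same-well viability: cells pre-incubated 5 h, dosed with compound plus 300 nM L165041, kept 17 h at 37 C, FRET substrate 2 h RT, then CellTiter-Glo 30 min RT and luminescence.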
# [3] = qHTS assay to identify small molecule agonists of the vitamin D receptor (VDR) signaling pathway - cell viability counter screen (AID 743224); settings: VDR-bla HEK293T viability, CellTiter-Glo luminescence, 16 h; activity change, negative = cytotoxicity: at 62.6 µM (top of the series); note: potency is the fitted concentration of half-maximal effect; nearly all actives have a fitted effect of over 50% in size
# How it was run: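 In parallel with the bla FRET readout, cytotoxicity toward VDR-bla cells after 16 h compound exposure was assessed by CellTiter-Glo, with luminescence recorded after a 30 min room-temperature incubation.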
# [4] = qHTS assay to identify small molecule antagonists of the vitamin D receptor (VDR) signaling pathway - cell viability counter screen (AID 743225); settings: VDR-bla HEK293T viability, CellTiter-Glo luminescence, 16 h; viability change, negative = cytotoxic: at 61 µM (top of the series) unless noted; note: nearly all actives have a fitted effect of over 50% in size; note: potency is the fitted concentration of half-maximal effect
# How it was run: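 Luminescent cell viability (CellTiter-Glo) in VDR-bla HEK 293T cells after 16 h compound exposure at 37C in the presence of 3 nM final 1-alpha,25-dihydroxy vitamin D3.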
# [5] = qHTS assay for small molecule agonists of the antioxidant response element (ARE) signaling pathway (AID 743202; active = well fitted activation curve with a large enough effect in the signal ratio in the repeat runs, not every such curve was filed as active; inconclusive = weak or mixed curves, or effect the other way; inactive = no such curve, though single readings can be large or run the other way; the % refers to the signal ratio; note: potency is the fitted concentration of half-maximal effect); settings: HepG2 ARE-bla reporter, beta-lactamase FRET, 16 h; activation: at 73.3 µM (top of the series) unless noted
# How it was run: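 Following a 16 h, 37 C exposure of reporter HepG2 cells (ARE-driven beta-lactamase, 2,000 cells/well) to compounds, FRET substrate was applied for 2 h at room temperature and fluorescence intensity recorded.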
# [6] = qHTS assay to identify small molecule antagonists of the farnesoid-X-receptor (FXR) signaling pathway - cell viability counter screen (AID 743221; active = well fitted cell-killing curve with a large enough effect in the repeat runs, not every such curve was filed as active; inconclusive = weak or mixed curves, or effect the other way; inactive = no such curve, though single readings can be large or run the other way; note: nearly all actives have a fitted effect of over 50% in size; note: potency is the fitted concentration of half-maximal effect); settings: FXR-bla HEK293T viability, CellTiter-Glo luminescence, 16 h; activity change, negative = cytotoxicity: at 62.6 µM (top of the series) unless noted
# How it was run: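 In GeneBLAzer FXR-UAS-bla HEK 293T cells stimulated with 50 uM chenodeoxycholic acid (final), compounds acted for 16 h at 37 C. Viability was assessed afterwards by CellTiter-Glo luminescence.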
# [7] = biological target: Vitamin D3 receptor (Homo sapiens) (UniProt P11473); assay: qHTS assay to identify small molecule antagonists of the vitamin D receptor (VDR) signaling pathway (AID 743223; active = well fitted inhibition curve with a large enough effect in the signal ratio in the repeat runs, not every such curve was filed as active; inconclusive = weak or mixed curves, or effect the other way; inactive = no such curve, though single readings can be large or run the other way; the % refers to the signal ratio; note: potency is the fitted concentration of half-maximal effect); settings: VDR-UAS-bla HEK293T, beta-lactamase FRET ratio, 16 h
# UniProt P11473, sequence (P11473 whole entry, looked up): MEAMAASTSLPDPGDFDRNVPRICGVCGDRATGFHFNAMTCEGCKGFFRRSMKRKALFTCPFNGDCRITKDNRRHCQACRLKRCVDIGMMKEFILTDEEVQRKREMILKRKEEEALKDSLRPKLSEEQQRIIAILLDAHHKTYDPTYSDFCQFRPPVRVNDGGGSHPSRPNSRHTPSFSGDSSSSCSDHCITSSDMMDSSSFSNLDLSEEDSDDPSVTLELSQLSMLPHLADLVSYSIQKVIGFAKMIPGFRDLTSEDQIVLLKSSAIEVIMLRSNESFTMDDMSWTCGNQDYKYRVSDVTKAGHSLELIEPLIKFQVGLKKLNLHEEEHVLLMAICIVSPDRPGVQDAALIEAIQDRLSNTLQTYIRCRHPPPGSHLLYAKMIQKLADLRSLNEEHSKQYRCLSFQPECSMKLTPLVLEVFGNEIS
# How it was run: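 Agonist 1alpha,25-dihydroxyvitamin D3 (3 nM in well) was added with each compound to VDR-bla cells preincubated 4 h. Cells stood 16 h at 37C, then FRET substrate 2 h at room temperature; fluorescence intensity recorded.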
# [8] = qHTS assay for small molecule activators of the heat shock response signaling pathway - cell viability counter screen (AID 743209); settings: HSE-bla HeLa viability, CellTiter-Glo luminescence, 5 h; activity change, negative = cytotoxicity: at 62.6 µM (top of the series); note: nearly all actives have a fitted effect of over 50% in size; note: potency is the fitted concentration of half-maximal effect
# How it was run: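 Same-well multiplex: after 2.5 h room-temperature incubation with LiveBLAzer B/G substrate and fluorescence reading, CellTiter-Glo reagent was added to HSE-bla HeLa cells that had received compound for 5 h at 37 C; luminescence read after 30 min.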
# [9] = biological target: Bile acid receptor (Homo sapiens) (UniProt Q96RI1); assay: qHTS assay to identify small molecule agonists of the farnesoid-X-receptor (FXR) signaling pathway (AID 743220; active = well fitted activation curve with a large enough effect in the signal ratio in the repeat runs, not every such curve was filed as active; inconclusive = weak or mixed curves, or effect the other way; the % refers to the signal ratio; note: % is set by controls: 0 for no effect and ±100 for the full control effect); settings: HEK293T FXR-UAS-bla, beta-lactamase FRET ratio, 16 h; activation: at 62.6 µM (top of the series)
# UniProt Q96RI1, sequence (Q96RI1 whole entry, looked up): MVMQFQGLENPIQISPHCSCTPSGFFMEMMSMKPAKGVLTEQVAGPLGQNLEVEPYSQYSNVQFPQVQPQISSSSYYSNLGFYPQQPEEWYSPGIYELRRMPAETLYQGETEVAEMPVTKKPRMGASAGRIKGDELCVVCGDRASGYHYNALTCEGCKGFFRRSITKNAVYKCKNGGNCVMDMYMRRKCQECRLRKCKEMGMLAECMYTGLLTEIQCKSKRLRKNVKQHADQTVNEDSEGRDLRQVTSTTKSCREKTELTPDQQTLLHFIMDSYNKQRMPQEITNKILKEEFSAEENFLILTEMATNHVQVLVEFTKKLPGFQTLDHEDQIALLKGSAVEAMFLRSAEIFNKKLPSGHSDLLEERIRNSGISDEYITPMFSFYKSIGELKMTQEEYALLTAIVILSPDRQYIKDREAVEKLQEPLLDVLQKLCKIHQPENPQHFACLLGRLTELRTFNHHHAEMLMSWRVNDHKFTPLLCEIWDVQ
# How it was run: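 FXR-UAS-bla HEK 293T cells carrying a UAS-driven beta-lactamase reporter were plated for 5 h at 37C/5% CO2, then exposed to DMSO-dissolved Tox21 10K compounds for 16 h at 37C. A LiveBLAzer B/G FRET substrate was loaded for 2 h at room temperature before fluorescence reading.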
# [10] = biological target: Vitamin D3 receptor (Homo sapiens) (UniProt P11473); assay: qHTS assay to identify small molecule agonists of the vitamin D receptor (VDR) signaling pathway (AID 743222; calls by dose curve; note: % is set by controls: 0 for no effect and ±100 for the full control effect); settings: HEK293T VDR-UAS-bla, beta-lactamase FRET ratio, 16 h; activation: at 63.5 µM (top of the series) unless noted
# How it was run: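 Following 4 h attachment at 37C, VDR-bla cells (2,000 per well) received DMSO-dissolved compounds or controls. After 16 h incubation, LiveBLAzer B/G FRET substrate was added and fluorescence read 2 h later at room temperature.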
# [11] = qHTS assay for small molecule activators of the heat shock response signaling pathway (AID 743210; active = well fitted activation curve with a large enough effect in the signal ratio in the repeat runs, with a control signal flat, not every such curve was filed as active; inconclusive = weak or mixed curves; the % refers to the signal ratio; note: potency is the fitted concentration of half-maximal effect); settings: HeLa HSE-bla reporter, beta-lactamase ratio, 5 h; activation: at 62.6 µM (top of the series) unless noted
# How it was run: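 Heat shock element–beta-lactamase HeLa reporter cells; qHTS with compounds for 5 h at 37 C; detection by FRET substrate fluorescence after 2.5 h at RT.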
# [12] = biological target: Peroxisome proliferator-activated receptor delta (Homo sapiens) (UniProt Q03181); assay: qHTS assay to identify small molecule antagonists of the peroxisome proliferator-activated receptor delta (PPARd) signaling pathway (AID 743215; active = well fitted inhibition curve with a large enough effect in the signal ratio in the repeat runs, not every such curve was filed as active; inconclusive = weak or mixed curves, or effect the other way; inactive = no such curve, though single readings can be large or run the other way; the % refers to the signal ratio;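 note: cells stimulated with agonist L165041 at 300 nM final during compound exposure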; note: potency is the fitted concentration of half-maximal effect); settings: HEK293H PPARd-UAS-bla, beta-lactamase FRET ratio, antagonist, 17 h; ratio activity, negative = inhibition: at 62 µM (top of the series) unless noted
# UniProt Q03181, sequence (Q03181 whole entry, looked up): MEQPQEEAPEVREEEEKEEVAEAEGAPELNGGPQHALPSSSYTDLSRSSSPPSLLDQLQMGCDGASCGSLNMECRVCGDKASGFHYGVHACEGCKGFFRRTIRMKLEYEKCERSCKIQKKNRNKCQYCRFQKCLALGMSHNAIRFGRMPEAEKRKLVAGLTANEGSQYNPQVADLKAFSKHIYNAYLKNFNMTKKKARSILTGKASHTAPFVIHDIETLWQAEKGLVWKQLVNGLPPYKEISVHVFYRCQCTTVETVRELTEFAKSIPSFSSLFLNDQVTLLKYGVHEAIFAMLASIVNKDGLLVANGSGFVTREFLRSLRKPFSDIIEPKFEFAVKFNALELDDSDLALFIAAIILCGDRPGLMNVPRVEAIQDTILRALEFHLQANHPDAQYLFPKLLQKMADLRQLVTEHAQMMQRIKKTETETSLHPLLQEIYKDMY
# How it was run: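 Fluorescence from cleaved LiveBLAzer B/G FRET substrate (2 h, room temperature) reports PPARd-driven beta-lactamase in HEK293H UAS-bla cells. Cells had been treated 17 h at 37 C with compound plus 300 nM final L165041.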
# [13] = qHTS assay to identify small molecule agonists of the peroxisome proliferator-activated receptor delta (PPARd) signaling pathway - cell viability counter screen (AID 743211); settings: PPARd-bla HEK293H viability, CellTiter-Glo luminescence, 17 h; activity change, negative = cytotoxicity: at 62.6 µM (top of the series); note: % is set by controls: 0 for no effect and ±100 for the full control effect; nearly all actives have a fitted effect of over 55% in size
# How it was run: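 Luminescent ATP viability assay (CellTiter-Glo, 30 min RT) in UAS-bla HEK293H cells carrying the PPAR delta reporter construct, 3000 cells/well, after a 17 h compound treatment at 37 C.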
# [14] = biological target: Bile acid receptor (Homo sapiens) (UniProt Q96RI1); assay: qHTS assay to identify small molecule antagonists of the farnesoid-X-receptor (FXR) signaling pathway (AID 743217; active = well fitted inhibition curve with a large enough effect in the signal ratio in the repeat runs, not every such curve was filed as active; inconclusive = weak or mixed curves, or effect the other way; inactive = no such curve, though single readings can be large or run the other way; the % refers to the signal ratio; note: % is set by controls: 0 for no effect and ±100 for the full control effect); settings: HEK293T FXR-UAS-bla, beta-lactamase ratio, CDCA-stimulated, 16 h
# How it was run: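 FRET fluorescence after 2 h room-temperature LiveBLAzer loading gives the readout. Prior step: FXR-bla HEK 293T cells, seeded and incubated 5 h, received test compounds plus 50 uM final CDCA for 16 h at 37 °C.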
# [15] = biological target: Peroxisome proliferator-activated receptor delta (Homo sapiens) (UniProt Q03181); assay: qHTS assay to identify small molecule agonists of the peroxisome proliferator-activated receptor delta (PPARd) signaling pathway (AID 743212; calls by dose curve;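 note: HEK293H cells with PPARd UAS beta-lactamase reporter GeneBLAzer system; % is set by controls: 0 for no effect and ±100 for the full control effect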); settings: HEK293H PPARd-UAS-bla, beta-lactamase FRET ratio, 17 h; activation: at 62.6 µM (top of the series) unless noted
# How it was run: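 Beta-lactamase reporter read by fluorescence (LiveBLAzer B/G FRET, 2 h, room temperature). Test agents, in DMSO, incubated at 37 C with PPARd-bla HEK293H cells.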
# [16] = qHTS assay to identify small molecule agonists of the farnesoid-X-receptor (FXR) signaling pathway - cell viability counter screen (AID 743218); settings: FXR-bla HEK293T viability, CellTiter-Glo luminescence, 16 h; viability change, negative = cytotoxic: at 62.6 µM (top of the series) unless noted; note: potency is the fitted concentration of half-maximal effect; nearly all actives have a fitted effect of over 45% in size
# How it was run: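 Readout: CellTiter-Glo luminescence, 30 min RT, multiplexed after the FXR-bla FRET reading. HEK 293T FXR-UAS-bla cells received compound 5 h post-plating and were incubated 16 h at 37 C.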
# [17] = activity change, negative = inhibition: at 61 µM (top of the series) unless noted
# [18] = activity change, negative = inhibition: at 62.6 µM (top of the series) unless noted
# Tags give direction and shape of the fitted curve or compound fluorescence and quenching.
smiles,measurement,setting,value
NCCN,Potency,[1],inactive
same,Potency,[2],"inconclusive: 11.2 µM [cytotoxic, full curve, poor fit] and inconclusive: 24.5 µM [cytotoxic, single point]"
same,Potency,[3],"inconclusive: 21.9 µM [cytotoxic, single point]"
same,Potency,[4],"inconclusive: 21.9 µM [cytotoxic, single point]"
CC(C)c1cccc(O)c1,activation,[5],inconclusive: -8.37% [at 94.8 µM]
same,Potency,[6],"inconclusive: 57.9 µM [rising, partial curve]"
same,Potency,[7]; [17],inactive
same,Potency,[4],inactive
C=CCCCCCCCC,Potency,[5],inactive
same,Potency,[6],inactive
same,Potency,[7]; [17],"inconclusive: 55.3 µM [fluorescent, partial curve, poor fit]"
CC(C)(C)C(=O)CCc1ccc(Cl)cc1,Potency,[8],"inconclusive: 49 µM [rising, partial curve, poor fit]"
CCCc1ccc(O)c(OC)c1,Potency,[1],"inconclusive: 0.0054 µM [cytotoxic, full curve, poor fit]"
same,"activity change, negative = inhibition",[7]; [17],inconclusive: -1.27%
same,Potency,[4],"inconclusive: 0.347 µM [cytotoxic, full curve, poor fit]"
C=CC[N+]1([C@H]2C[C@H]3[C@@H]4CC[C@H]5C[C@H](OC(C)=O)[C@@H](N6CCCCC6)C[C@]5(C)[C@H]4CC[C@]3(C)[C@H]2OC(=O)CC)CCCCC1,Potency,[1],"inconclusive: 13.3 µM [cytotoxic, partial curve, poor fit]"
CCOC(=O)C(Br)c1ccccc1 (stereo unspecified),activation,[5],inconclusive: 25.8%
same,"activity change, negative = inhibition",[7]; [17],inconclusive: 28%
O=C1c2cccc(O)c2C(=O)c2c(O)cc(CO)cc21,Potency,[5],"inconclusive: 2.17 µM [rising, full curve, poor fit]"
same,Potency,[9],inactive
same,Potency,[10],inactive
CC1CCC2CC1C2(C)C (stereo unspecified),Potency,[8],inactive
CC1=NS(=O)(=O)c2cc(Cl)ccc2N1,Potency,[5],inactive
same,Potency,[3],"inconclusive: 7.5 µM [rising, single point]"
Cc1ccncc1,activation,[5],inconclusive: 0.0904%
same,"viability change, negative = cytotoxic",[4],inconclusive: -20.6% [cytotoxic] [at 78.8 µM]
CCN1CC(CCN2CCOCC2)C(c2ccccc2)(c2ccccc2)C1=O (stereo unspecified),activation,[5],inconclusive: 10.9%
same,Potency,[7]; [17],"inconclusive: 1.9 µM [fluorescent, partial curve, poor fit]"
same,Potency,[4],inactive
Cc1ccc(C(=O)C(=O)O)cc1C,Potency,[8],inactive
CCC(C)C1CCCCC1=O (stereo unspecified),Potency,[5],inactive
same,"activity change, negative = inhibition",[7]; [17],inconclusive: -7.66%
O=C(O)c1cc(N=Nc2ccc(S(=O)(=O)Nc3ccccn3)cc2)ccc1O,Potency,[8],inactive
same,Potency,[11],inactive
same,"ratio activity, negative = inhibition",[12],inconclusive: -8.44%
same,"activity change, negative = inhibition",[7]; [17],inconclusive: 13.9%
NCCCCCC(=O)O,Potency,[5],inactive
same,"activity change, negative = inhibition",[7]; [17],inconclusive: 7.42%
C=CC(=O)OCCC(=O)O,Potency,[8],inactive
same,Potency,[13],inactive
same,Potency,[4],"inconclusive: 2.19 µM [cytotoxic, single point]"
CCOC(=O)NNc1nncc2ccccc12,Potency,[11],"inconclusive: 5.96 µM [falling, partial curve, poor fit]"
same,Potency,[14]; [18],inactive
same,Potency,[4],inactive
N#C[C@@H]1CC(F)(F)CN1C(=O)CNC1CC2CCC(C1)N2c1ncccn1 (stereo partly specified),Potency,[11],inconclusive: 61.6 µM [activator]
same,Potency,[3],"inconclusive: 43.6 µM [cytotoxic, partial curve, poor fit]"
Cc1ccc(S)cc1,Potency,[11],"inconclusive: 24.5 µM [activator, partial curve, poor fit]"
NNc1nnc(NN)c2ccccc12,Potency,[15],inactive
same,Potency,[14]; [18],inactive
same,Potency,[16],"inconclusive: 1.68 µM [rising, partial curve, poor fit]"
same,Potency,[4],"inconclusive: 16.9 µM [cytotoxic, partial curve, poor fit]"
CCCCCCCCCCCCCC(=O)O,Potency,[8],"inconclusive: 38.9 µM [cytotoxic, partial curve, poor fit]"
same,Potency,[2],"inconclusive: 17.4 µM [cytotoxic, full curve, poor fit]"
same,"activity change, negative = inhibition",[14]; [18],inconclusive: 12.6%
same,"activity change, negative = inhibition",[14]; at 62.6 µM (top of the series),inactive: -0.851%
same,"activity change, negative = inhibition",[7]; [17],inconclusive: 7.39% [activator]
same,"activity change, negative = inhibition",[7]; at 61 µM (top of the series),inactive: 8.9%
Nc1nc(N)c(-c2ccccc2)s1,Potency,[11],inactive
same,Potency,[12],"inconclusive: 0.0094 µM [rising, full curve, poor fit]"
same,Potency,[4],inactive
CC[C@H](NC(C)C)[C@H](O)c1ccc(O)c2[nH]c(=O)ccc12,Potency,[8],inactive
same,activation,[10],inconclusive: 0.365%
same,Potency,[4],inactive
CC(C)C[C@H](NC(=O)CNC(=O)[C@H](Cc1ccc(O)cc1)NC(=O)[C@H](CO)NC(=O)[C@H](Cc1c[nH]c2ccccc12)NC(=O)[C@H](Cc1cnc[nH]1)NC(=O)[C@@H]1CCC(=O)N1)C(=O)N[C@@H](CCCN=C(N)N)C(=O)N1CCC[C@H]1C(=O)NCC(N)=O (stereo in doubt),Potency,[13],inactive
same,"ratio activity, negative = inhibition",[12],inconclusive: -23.6%
same,Potency,[14]; [18],inactive
same,Potency,[16],"inconclusive: 0.531 µM [rising, full curve, poor fit]"
same,activation,[9],inconclusive: 16.4%
CCCN(CCC)C(=O)C(CCC(=O)O)NC(=O)c1ccccc1 (stereo unspecified),Potency,[11],inactive
same,Potency,[13],inactive
same,"activity change, negative = inhibition",[7]; [17],inconclusive: -13.2%
CC1COc2c(N3CCN(C)CC3)c(F)cc3c(=O)c(C(=O)O)cn1c23 (stereo unspecified),Potency,[13],inactive
same,Potency,[14]; [18],inactive
Cc1ccc2c(Cl)cc(Cl)c(O)c2n1,Potency,[15],inactive
same,"ratio activity, negative = inhibition",[12],inconclusive: 5.5%
same,Potency,[16],"inconclusive: 33.5 µM [rising, partial curve, poor fit]"
